Source: PubChem BioAssay AID488969 (Vanderbilt High Throughput Screening Facility, 2010)
Whole data set: some 110,000 compounds, median “z-score” near -0.1, cut for the highest 2% near 2. Some of the results follow. Activity calls are given as the source filed them.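 Rule for the calls: active = z-score in the third read window above 3 or below -3; inactive = the rest.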

Target: Metabotropic glutamate receptor 8 (Rattus norvegicus) (UniProt P70579)
Assay: rat mGluR8 modulators via GIRK flux, primary screen, cell-based, thallium flux, HTS (AID 488969)
Conditions: HEK293 rat mGluR8, GIRK (G protein-gated inwardly rectifying potassium channel) thallium flux, FluoZin2; at 10 µM; stronger effect = higher value; submaximal glutamate (EC20) added with thallium

Sequence of UniProt P70579 (P70579 whole entry, looked up): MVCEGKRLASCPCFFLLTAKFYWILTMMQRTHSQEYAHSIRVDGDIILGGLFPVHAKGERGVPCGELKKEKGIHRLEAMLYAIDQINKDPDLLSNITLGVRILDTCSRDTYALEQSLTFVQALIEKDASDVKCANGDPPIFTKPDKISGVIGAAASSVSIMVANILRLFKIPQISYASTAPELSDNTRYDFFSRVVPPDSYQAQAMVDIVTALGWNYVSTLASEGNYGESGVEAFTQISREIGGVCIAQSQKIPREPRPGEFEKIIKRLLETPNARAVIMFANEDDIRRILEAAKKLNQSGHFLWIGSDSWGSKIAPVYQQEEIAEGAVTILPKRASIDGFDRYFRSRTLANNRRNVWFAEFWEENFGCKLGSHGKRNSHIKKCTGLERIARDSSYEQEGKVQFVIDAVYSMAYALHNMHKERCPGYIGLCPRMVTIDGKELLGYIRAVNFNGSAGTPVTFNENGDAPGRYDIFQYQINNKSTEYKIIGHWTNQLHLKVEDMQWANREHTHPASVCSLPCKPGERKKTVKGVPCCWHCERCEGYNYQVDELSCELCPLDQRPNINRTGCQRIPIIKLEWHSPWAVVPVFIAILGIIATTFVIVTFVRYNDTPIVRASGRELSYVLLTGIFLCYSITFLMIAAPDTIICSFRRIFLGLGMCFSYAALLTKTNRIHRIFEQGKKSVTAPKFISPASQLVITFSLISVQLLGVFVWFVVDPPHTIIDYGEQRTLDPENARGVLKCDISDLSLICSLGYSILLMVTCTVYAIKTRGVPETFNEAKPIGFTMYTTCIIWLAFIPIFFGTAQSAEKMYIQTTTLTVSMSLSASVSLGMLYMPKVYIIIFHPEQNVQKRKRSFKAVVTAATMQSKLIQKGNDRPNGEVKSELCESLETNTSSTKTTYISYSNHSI

Compound | z-score
Cc1cc(Cl)ccc1OC(C)C(=O)Nc1ccc(S(=O)(=O)Nc2cnc3ccccc3n2)cc1 (configuration not stated) | -2.58
CC(=O)N(/N=C1\Sc2ccccc2C1=O)c1ccc(C)cc1C | -0.638
CS(=O)(=O)N(CC(=O)NCc1ccco1)c1ccccc1Cl | -0.137
CCCn1c(=O)c(C(=O)c2ccccc2)nc2ccccc21 | -0.131
COCc1cc(CN2CCN(C)CC2)c(O)c2ncccc12 | -0.478
C=CCn1c(CSc2nc3ccccc3s2)nnc1SCC(=O)NCc1cccnc1 | -0.118
O=C(NCCCNC1CCCCC1)c1ccc(/C=N/O)nc1 | -0.314
CCOc1ccc(N2CC(=O)SC2=S)cc1 | 0.81
Cc1cccc(-n2nnc(C(=O)NCc3ccccc3)c2N)c1 | -0.985
COC(=O)c1ccccc1NC(=O)CSc1nnc(Cc2ccc(Cl)cc2)o1 | -0.323
CCC(CC)C(=O)Nc1c(C)n(C)n(-c2ccccc2)c1=O | 0.0217
Cc1c(NC(=O)c2ccc(F)c(S(=O)(=O)N3CCOCC3)c2)c(=O)n(-c2ccccc2)n1C | -0.691
COc1ccc2c(c1OC)C(=O)N1N=C(c3ccc(O)cc3)CC21 (configuration not stated) | -0.236
COc1cc(OC)c(OC)cc1/C=C/C(=O)c1ccc(NS(=O)(=O)c2ccc(C)cc2)cc1 | 0.146
O=C(CCC(=O)c1ccc(Oc2ccccc2)cc1)Nc1ccc(Cl)cc1Cl | 0.0353
Cc1ccc(S(=O)(=O)Nc2ccc3nc(C)sc3c2)cc1 | -0.613
CC(=O)c1cccc(NC(=O)Nc2ccc(C(=O)N3CCOCC3)cc2)c1 | 0.0588
CN1C(=O)C2(Oc3ccccc3C3CC(c4ccccc4)=NN32)c2ccccc21 (configuration not stated) | 0.0396
O=C(NC(c1ccccc1)C(Cl)Cl)c1ccccc1 (configuration not stated) | -0.428
CC(C)(C)C(=O)Nc1ccc(-c2cn3ccsc3n2)cc1 | -1.44
O=C(/C=C(\c1ccc(Cl)cc1)n1cncn1)c1ccc(Cl)cc1 | 0.0724
O=C(Cn1cnc2ccccc2c1=O)N1CCN(Cc2ccc3c(c2)OCO3)CC1 | 0.143
COc1ccc2c(c1OC)C(=O)N1c3ccccc3SC21 (configuration not stated) | 0.0179

Compound | z-score
O=C(NC1CCc2ccccc21)C1CCN(S(=O)(=O)c2ccc(Cl)cc2)CC1 (configuration not stated) | 2.31
COc1ccc2c(CC(=O)NCc3ccc4c(c3)OCO4)coc2c1 | -0.144
CCOC(=O)c1ccccc1NC(=O)CSc1nnc(Cc2cccn2C)n1-c1ccc(F)cc1 | -1.63
CCCCC(=O)Nc1ccc(C(=O)OC2CCCCC2)cc1 | 1.36
COC(=O)c1ccc(Cl)c(NC(=O)NC23CC4CC(CC(C4)C2)C3)c1 | 0.74
CCN(CC)S(=O)(=O)c1cccc(NC(=O)COc2ccc(Cl)cc2Br)c1 | 0.628
COc1cc(OC)c(-c2cc(C(=O)O)ccc2OC)c(OC)c1 | -0.305
O=C(c1ccccc1)n1ccn(-c2ccccc2)c1=S | -1.09
Cc1ccc(SCC(=O)c2c(C)[nH]c3ccccc23)cc1 | -0.725
C=CCn1c(SCC(=O)NCCc2ccccc2)nnc1C(C)NC(=O)c1cccs1 (configuration not stated) | 0.0814
COc1ccccc1C(=O)Nc1ccc2c(c1)OCO2 | 0.246
CC(C)COP(=O)(c1ccc(N(C)C)cc1)C(O)c1ccncc1 (configuration not stated) | -0.817
Cc1ccc(S(=O)(=O)NCCc2ccccc2)cc1 | -0.206
O=C(Nc1ccc(F)cc1)C(c1ccccc1)N1CCN(S(=O)(=O)c2c(F)cccc2F)CC1 (configuration not stated) | -0.642
O/N=C\c1ccc(-c2ccccc2)o1 | -0.209
Cc1ccc(/C=c2\sc3nc(-c4ccccc4Br)nn3c2=O)o1 | 0.427
O=C(COC(=O)C1(c2ccccc2)CC1)N1CCN(c2ccc(F)cc2)CC1 | -0.512
CC1=C(Sc2nc3ccccc3[nH]2)C(=O)NC(C)(C)C1 | -0.124
Cc1cc(C)cc(NC(=O)CSc2cc(C(=O)c3nccn3C)c3ccccc3n2)c1 | -0.0759
O=C(Oc1ccc(Cl)c2cccnc12)C12CC3CC(CC(C3)C1)C2 | -0.248
Cc1ccccc1OC(C)C(=O)NC1CCCC1 (configuration not stated) | -0.0663
N=C1/C(=C\c2ccc(SCc3ccco3)o2)C(=O)N=C2SC=NN12 | -0.277
Oc1ccccc1N1CCN(c2ncccn2)CC1 | 0.0492

Compound | z-score
CCC(=O)NCCc1cc2cc(C)c(C)cc2[nH]c1=O | 0.381
Cc1ccc(-c2nnn(CC(=O)N(Cc3cccs3)C(C(=O)NC3CCCC3)c3ccncc3)n2)cc1 (configuration not stated) | -0.258
O=C(O/N=C\c1ccc(N2CCCCC2)c([N+](=O)[O-])c1)c1cccc(Cl)c1 | -0.494
O=C(c1cc(-c2ccc(F)cc2)on1)N1CCCC1 | 0.605
CCOc1ccc(-c2nnc(-c3ccncc3)o2)cc1 | -0.243
CC1CN(c2oc(-c3ccco3)nc2C#N)CC(C)O1 (configuration not stated) | -0.251
CSc1ccccc1NC(=O)Nc1cccc(Cl)c1Cl | 0.0344
S=C(Nc1ccccc1)N1CCCCC1 | -0.0174
CC1CCCN(C(=O)CN2C(=O)c3ccccc3C2=O)C1 (configuration not stated) | -0.723
CCCCN=C(N)/C(C(=O)OCC)=C(\O)c1ccc(OC)cc1 | 0.334
CN(C(=S)NC1=CCS(=O)(=O)C1)C1CCCCC1 | -0.225
CCn1nccc1C(=O)Nc1nc2ccccc2n1CCN1CCCCC1 | -0.307
Clc1ccc(-c2nnc(NCc3ccccc3)c3ccccc23)cc1 | -0.291
COC(=O)c1cccc(NC(=O)c2ccc3c(c2)C(=O)N(CC2CCCO2)C3=O)c1 (configuration not stated) | 0.0525
Cc1ccc(NCC(=O)Nc2cccc(S(=O)(=O)N(C)C)c2)c(Cl)c1 | active: 4.79
O=C(NCCCCc1ccccc1)c1ccc(Br)o1 | -0.396
CCOC(=O)C(C)Sc1nnc(-c2ccccc2O)n1Cc1ccccc1 (configuration not stated) | -0.184
COc1ccc(-n2c(/C=C(\C)O)nc(=O)c3c(C)cc(C)nc32)cc1 | -1.79
CCc1oc(C(=O)O)cc1CN(CC)CC | 0.229
O=C(NCCc1csc(-c2cccnc2)n1)c1ccccc1 | -0.261
Cc1ccc2occ(/C=C/C(=O)O)c(=O)c2c1 | 0.113
CCn1cc([N+](=O)[O-])c(C(=O)N2N=C(c3cccc4ccccc34)CC2c2ccccc2O)n1 (configuration not stated) | 0.0967
CN1CCN(S(=O)(=O)c2ccc3c(c2)NC(=O)C2CCCN32)CC1 (configuration not stated) | -0.228

Compound | z-score
CCNC(=S)N(Cc1ccc2c(c1)OCO2)C1CC(=O)N(c2ccc(F)cc2)C1=O (configuration not stated) | -0.0723
CCn1c2ccccc2c2nnc(SCC(=O)Nc3ccc4c(c3)OCO4)nc21 | 0.64
CC(=O)Cc1nsc(NC(=O)c2csc3c2CCCC3)n1 | 0.156
COc1ccc(Cl)cc1C(=O)NCCN(C)C | 0.157
COc1ccc(CC(=O)Nc2nc(-c3cccc([N+](=O)[O-])c3)cs2)cc1 | -0.0651
Cc1nn(-c2ccccc2)c(C)c1/C=N/NC(=O)c1cc(C(C)(C)C)[nH]n1 | -0.989
C=CCOc1ccc(C=Nc2ccc(Cl)cc2)c(O)c1 | -0.371
CCCCc1c(O)nc(SCC(=O)NC(C)(C)C)n(-c2ccccc2C)c1=O | 0.148
COC(=O)CSc1nc2c(c(=O)[nH]c(=O)n2C)n1CCC(C)C | -0.127
COc1ccc(C(NC(=O)/C=C/c2ccco2)c2ccc(OC)c(OC)c2)cc1OC | -0.0828
COc1cccc(OCCCCSc2ncccn2)c1 | -0.4
COc1ccc(C(=O)Nc2cccc(-c3nnc(-c4ccco4)o3)c2)cc1 | -0.857
CN(Cc1nnc(SCC(=O)NCCc2ccccc2)n1C)S(=O)(=O)c1ccccc1 | -0.226
Cc1ccc(CNC(=O)C2CC(c3ccc([N+](=O)[O-])cc3)=NO2)cc1 (configuration not stated) | 0.116
Cc1ccc(NC(=O)C2(c3ccccc3)CCOCC2)c([N+](=O)[O-])c1 | 0.0769
COc1nc(NC(C)(C)C)nc(Oc2ccc(=O)n(-c3ccccc3)n2)n1 | -0.0471
CCN=C(NCC)SC1CC(=O)N(c2cccc(OCC)c2)C1=O (configuration not stated) | 0.256
O=C(Cc1cccs1)NNC(=S)NCc1ccc(Cl)cc1 | 0.477
CCC(C(=O)NCc1ccccc1OC)n1nc(C)n2c(cc3occc32)c1=O (configuration not stated) | -0.272
CC(C)[C@H](NC(=O)c1ccccc1)C(=O)N1CCc2ccccc21 | -0.0295
Cc1ccc(C2Nc3ccc4ccccc4c3C3=C2C(=O)CC(C)(C)C3)o1 (configuration not stated) | 0.339
Cc1cc(SCC(=O)c2ccccc2)nc(C)n1 | 0.11
CCCCC(=O)Nc1nnc(SCC(=O)NC2CCCC2)s1 | -0.859

Compound | z-score
COC(=O)c1sc2nc(CN3CCN(c4cccc(C(F)(F)F)c4)CC3)[nH]c(=O)c2c1C | -0.163
COc1ccccc1C(=O)N/C(N)=N/c1nc2ccccc2o1 | -0.492
O=C(c1cccc(C(F)(F)F)c1)N1CCCC1 | -0.266
CCOC(=O)c1c(C2COc3ccccc3O2)csc1NC(=O)c1ccco1 (configuration not stated) | 0.786
Cn1c(=O)c(=O)n(C)c2cc(S(=O)(=O)N3CCCCC3)ccc21 | 0.807
Nc1nnc(SCc2ccccc2)n1-c1ccccc1 | -0.294
Clc1cccc(CSc2nnc(-c3c[nH]c4ccccc34)o2)c1 | -0.312
O=C(C1CCCCC1)N1CCCn2c1nc1ccccc12 | -0.596
CCc1cc2ccc(C)cc2nc1SCC(=O)NNC(=O)c1ccco1 | 1.26
COC(=O)c1cc(COc2ccc3c(c2)oc(=O)c2ccccc23)c(C)o1 | -0.108
O=C(NC1CCCCCC1)C1CCN(c2nc3ccccc3o2)CC1 | -0.278
CCOC(=O)C1CCN(c2c(NCCN3CCN(c4ccccc4)CC3)c(=O)c2=O)CC1 | 0.155
CC(=O)Nc1cc(S(=O)(=O)Nc2ccccc2)c(C)cc1C | -0.09
Cc1ccc(NC(=O)C2C3CCCC2C3c2ccccc2)c(C)c1 (configuration not stated) | -0.126
CC(C)CCNC(=O)CN(Cc1ccc2c(c1)OCO2)C(=O)Cn1nnc(-c2cccs2)n1 | -0.787
O=C(N=Nc1c(O)[nH]c2ccc(Br)cc12)c1ccccc1-n1cccc1 | -1.22
CCc1c(C)sc(NC(=O)C2CCCCC2C(=O)O)c1C(N)=O (configuration not stated) | -0.227
Cc1nc2ccccn2c1-c1nnco1 | 0.116
O=c1c2c3c(sc2nc2sc(CN4CCCCC4)cn12)CCCC3 | -0.178
CCC1CCCCN1S(=O)(=O)c1ccc(S(=O)(=O)N(Cc2ccccn2)CC2CCCO2)cc1 (configuration not stated) | -0.251
